The results in this text go back to the supplement of paper PMC12217912.

The labels stand for the following.
B1: TEV protease; numbered along this chain (parent)
chain: MGESLFKGPRDYNPISSSICHLTNESDGHTTSLYGIGFGPFIITNKHLFRRNNGTLVVQSLHGVFKVKDTTTLQQHLVDGRDMIIIRMPKDFPPFPQKLKFREPQREERICLVTTNFQTKSMSSMVSDTSCTFPSGDGIFWKHWIQTKDGQCGSPLVSTRDGFIVGIHSASNFTNTNNYFTSVPKNFMELLTNQEAQQWVSGWRLNADSVLWGGHKVFMVKPEEPFQPVKEATQL

The other results are listed elsewhere or left out. Sequences were assembled here from the parent chain. Values near 0.05 are background.
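Note: Bxb1 expression induced with 0.2% (w/v) L-rhamnose at OD600 near 0.5, cultures sampled hourly, flipped fraction per protease–substrate barcode pair counted by paired-end Illumina sequencing.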

The variants in the test derive from B1. Put plainly: raw area under fraction-flipped curve 0-4 h after induction (AUC4h, not background-subtracted), DNA-recorder readout of cleavage of the substrate (dimensionless); higher = more cleavage of the substrate by the protease variant. Particulars: temperature: 34 °C; time window: 0-4 h after rhamnose induction. On the procedure:
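In vivo DNA recorder in E. coli TOP10(DE3) ΔrhaA at 34 °C. Each TEVp single-site mutant (parent TEVp 0) is paired with a single-site variant of the 7-mer TEVs (canonical ENLYFQ|S). The substrate sits between flexible linkers in a Bxb1-sfGFP-TEVs-SsrA fusion, so cleavage stabilises Bxb1 and speeds flipping of a recombination array, read by NGS. The value is the raw area under the fraction-flipped curve over 0-4 h after rhamnose induction (AUC4h), with ≥20 reads per time point. It is not background-subtracted; inactive controls average about 0.047.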
Turning to MGESLFKGPRDYNPISSSICHLTNESDGHTTSLYGIGFGPFIITNKHLFRRNNGTLVVQSLHGVFKVKDTTTLQQHLVDGRDMIIIRMPKDFPPFPQKLKFREPQREERICLVTTNFQTKSMSSMVSDTSCTFPSGDGIFWKHWIQTKDGQCGSPLVSTRQGFIVGIHSASNFTNTNNYFTSVPKNFMELLTNQEAQQWVSGWRLNADSVLWGGHKVFMVKPEEPFQPVKEATQL [D161Q], the “area with substrate ANLYFQS” value stood at 0.0661, the “area with substrate DNLYFQS” value was 0.071, the “area with substrate HNLYFQS” value was determined as 0.0503 and the “area with substrate KNLYFQS” value turned out to be 0.0574. In addition, the “area with substrate LNLYFQS” value was determined as 0.0568, the “area with substrate MNLYFQS” value amounted to 0.0499, the “area with substrate RNLYFQS” value amounted to 0.055 and the “area with substrate SNLYFQS” value was found to be 0.0561. Besides, the “area with substrate TNLYFQS” value worked out at 0.0609, the “area with substrate VNLYFQS” value was 0.0365, the “area with substrate WNLYFQS” value came to 0.0523 and the “area with substrate YNLYFQS” value was 0.0534.
With MGESLFKGPRDYNPISSSICHLTNESDGHTTSLYGIGFGPFIITNKHLFRRNNGTLVVQSLHGVFKVKDTTTLQQHLVDGRDMIIIRMPKDFPPFPQKLKFREPQREERICLVTTNFQTKSMSSMVSDTSCTFPSGDGIFWKHWIQTKDGQCGSPLVSTRDGFIVGIHSASCFTNTNNYFTSVPKNFMELLTNQEAQQWVSGWRLNADSVLWGGHKVFMVKPEEPFQPVKEATQL [N172C], the “area with substrate ANLYFQS” value was determined as 0.0704, the “area with substrate DNLYFQS” value was 0.062, the “area with substrate HNLYFQS” value is 0.0532 and the “area with substrate LNLYFQS” value is 0.0771. The “area with substrate PNLYFQS” value is 0.0517, the “area with substrate SNLYFQS” value came out at 0.0613 and the “area with substrate WNLYFQS” value came to 0.0528.
With MGESLFKGPRDYNPISSSICHLTNESDGHTTSLYGIGFGPFIITNKHLFRRNNGTLVVQSLHGVFKVKDTTTLQQHLVDGRDMIIIRMPKDFPPFPQKLKFREPQREERICLVTTNFQTKSMSSMVSDTSCTFPSGDGIFWKHWIQTKDGQCGSPLVSTRDGHIVGIHSASNFTNTNNYFTSVPKNFMELLTNQEAQQWVSGWRLNADSVLWGGHKVFMVKPEEPFQPVKEATQL [F163H], the “area with substrate ANLYFQS” value was determined as 0.0769, the “area with substrate FNLYFQS” value is 0.0633, the “area with substrate HNLYFQS” value was 0.0597 and the “area with substrate NNLYFQS” value is 0.0596. The “area with substrate PNLYFQS” value turned out to be 0.061, the “area with substrate SNLYFQS” value was determined as 0.0747 and the “area with substrate TNLYFQS” value came out at 0.0681.
In the case of MGESLFKGPRDYNPISSSICHLTNESDGHTTSLYGIGFGPFIITNKHLFRRNNGTLVVQSLHGVFKVKDTTTLQQHLVDGRDMIIIRMPKDFPPFPQKLKFREPQREERICLVTTNFQTKSMSSMVSDTSCTFPSGDGIFWKHWIQTKDGQCGSPLVSTRDGFIVGIHSASNFTNTNNYFTSKPKNFMELLTNQEAQQWVSGWRLNADSVLWGGHKVFMVKPEEPFQPVKEATQL [V183K], the “area with substrate ANLYFQS” value came to 0.0533, the “area with substrate GNLYFQS” value amounted to 0.0533, the “area with substrate HNLYFQS” value worked out at 0.062 and the “area with substrate INLYFQS” value turned out to be 0.0512. Also, the “area with substrate NNLYFQS” value stood at 0.071, the “area with substrate PNLYFQS” value worked out at 0.0619, the “area with substrate SNLYFQS” value was 0.0564 and the “area with substrate TNLYFQS” value came to 0.0517. Besides, the “area with substrate WNLYFQS” value came out at 0.0506 and the “area with substrate YNLYFQS” value amounted to 0.0438.
As for MGESLFKGPRDYNPISSSICHLTNESDGHTTSLYGIGFGPFIITNKHLFRRNNGTLVVQSLHGVFKVKDTTTLQQHLVDGRDMIIIRMPKDFPPFPQKLKFREPQREERICLVTTNFQTKSMSSMVSDTSCTFPSGDGIFWKHWIQTKRGQCGSPLVSTRDGFIVGIHSASNFTNTNNYFTSVPKNFMELLTNQEAQQWVSGWRLNADSVLWGGHKVFMVKPEEPFQPVKEATQL [D149R], the “area with substrate ANLYFQS” value is 0.0742, the “area with substrate HNLYFQS” value turned out to be 0.0835, the “area with substrate INLYFQS” value was 0.0407 and the “area with substrate TNLYFQS” value is 0.0584. The “area with substrate VNLYFQS” value stood at 0.0603 and the “area with substrate WNLYFQS” value is 0.0537.
As for MGESLFKGPRDYNPISSSICHLTNESDGHTTSLYGIGFGPFIITNKHLFRRNNGTLVVQSLHGVFKVKDTTTLQQHLVDGRDMIIIRMPKDFPPFPQKLKFREPQREERICLVTTNFQTKSMSSMVSDTSCTFPSGDGIFWKHWIQTKDGQCGSPLVSTRDGFIVGIHSASNFTNTNNYFTSVPKAFMELLTNQEAQQWVSGWRLNADSVLWGGHKVFMVKPEEPFQPVKEATQL [N186A], the “area with substrate ANLYFQS” value came out at 0.0842, the “area with substrate FNLYFQS” value was 0.0589, the “area with substrate HNLYFQS” value was 0.0541 and the “area with substrate INLYFQS” value was 0.0747. Also, the “area with substrate KNLYFQS” value amounted to 0.0579, the “area with substrate TNLYFQS” value is 0.0717, the “area with substrate VNLYFQS” value was 0.0499 and the “area with substrate WNLYFQS” value is 0.0639.
On to MGESLFKGPRDYNPISSSICHLTNESDGHTTSLYGIGFGPFIITNKHLFRRNNGTLVVQSLHGVFKVKDTTTLQQHLVDGRDMIIIRMPKDFPPFPQKLKFREPQREERICLVTTNFQTKSMSSMVSDTSCTFPSGDGIFWKHWIQTKDGQCGSPLVSTRDGFIVGIHSASNFTNTNNYFTSVPKVFMELLTNQEAQQWVSGWRLNADSVLWGGHKVFMVKPEEPFQPVKEATQL [N186V], for which the “area with substrate ANLYFQS” value was 0.0474, the “area with substrate GNLYFQS” value was 0.0612, the “area with substrate HNLYFQS” value came to 0.0641 and the “area with substrate KNLYFQS” value came out at 0.0743. The “area with substrate MNLYFQS” value was 0.0809, the “area with substrate PNLYFQS” value is 0.0834, the “area with substrate QNLYFQS” value came to 0.0626 and the “area with substrate SNLYFQS” value worked out at 0.0596. In addition, the “area with substrate TNLYFQS” value is 0.065, the “area with substrate WNLYFQS” value was found to be 0.0563 and the “area with substrate YNLYFQS” value was 0.0482.
MGESLFKGPRDYNPISSSICHLTNESDGHTTSLYGIGFGPFIITNKHLFRRNNGTLVVQSLHGVFKVKDTTTLQQHLVDGRDMIIIRMPKDFPPFPQKLKFREPQREERICLVTTNFQTKSMSSMVSDTSCTFPSGDGIFWKHWIQTKDGQCGSPLVSTRDGFFVGIHSASNFTNTNNYFTSVPKNFMELLTNQEAQQWVSGWRLNADSVLWGGHKVFMVKPEEPFQPVKEATQL [I164F]: the “area with substrate ANLYFQS” value was determined as 0.0721, the “area with substrate LNLYFQS” value stood at 0.0768, the “area with substrate MNLYFQS” value came to 0.045 and the “area with substrate NNLYFQS” value was 0.0447. Moreover, the “area with substrate SNLYFQS” value came out at 0.0428, the “area with substrate WNLYFQS” value worked out at 0.0579 and the “area with substrate YNLYFQS” value stood at 0.0555.
For MGESLFKGPRDYNPISSSICHLTNESDGHTTSLYGIGFGPFIITNKHLFRRNNGTLVVQSLHGVFKVKDTTTLQQHLVDGRDMIIIRMPKDFPPFPQKLKFREPQREERICLVTTNFQTKSMSSMVSDTSCTFPSGDGIFWKHWIQTKDGQCGSPLVSTRDGFIVGIHSASNFTNTYNYFTSVPKNFMELLTNQEAQQWVSGWRLNADSVLWGGHKVFMVKPEEPFQPVKEATQL [N177Y], the “area with substrate ANLYFQS” value is 0.0769, the “area with substrate FNLYFQS” value is 0.079, the “area with substrate GNLYFQS” value was 0.0807 and the “area with substrate HNLYFQS” value turned out to be 0.074. The “area with substrate NNLYFQS” value amounted to 0.059, the “area with substrate PNLYFQS” value stood at 0.0575, the “area with substrate WNLYFQS” value came out at 0.0685 and the “area with substrate YNLYFQS” value stood at 0.0569.
For MGESLFKGPRDYNPISSSICHLTNESDGHTTSLYGIGFGPFIITNKHLFRRNNGTLVVQSLHGVFKVKDTTTLQQHLVDGRDMIIIRMPKDFPPFPQKLKFREPQREERICLVTTNFQTKSMSSMVSDTSCTFPSGDGIFWKHWIQTKDGQCVSPLVSTRDGFIVGIHSASNFTNTNNYFTSVPKNFMELLTNQEAQQWVSGWRLNADSVLWGGHKVFMVKPEEPFQPVKEATQL [G153V], the “area with substrate ANLYFQS” value amounted to 0.0461, the “area with substrate GNLYFQS” value was found to be 0.0744, the “area with substrate HNLYFQS” value came out at 0.0572 and the “area with substrate KNLYFQS” value amounted to 0.051. The “area with substrate NNLYFQS” value was 0.0559, the “area with substrate PNLYFQS” value was 0.0501, the “area with substrate SNLYFQS” value turned out to be 0.0437 and the “area with substrate TNLYFQS” value is 0.0589. Besides, the “area with substrate VNLYFQS” value was determined as 0.0535 and the “area with substrate YNLYFQS” value is 0.0444.
